Some of the results follow. Sequences were assembled here from the parent chain. Inactive controls read about 0.05.
B1: TEV protease; numbered along this chain (parent)
chain: MGESLFKGPRDYNPISSSICHLTNESDGHTTSLYGIGFGPFIITNKHLFRRNNGTLVVQSLHGVFKVKDTTTLQQHLVDGRDMIIIRMPKDFPPFPQKLKFREPQREERICLVTTNFQTKSMSSMVSDTSCTFPSGDGIFWKHWIQTKDGQCGSPLVSTRDGFIVGIHSASNFTNTNNYFTSVPKNFMELLTNQEAQQWVSGWRLNADSVLWGGHKVFMVKPEEPFQPVKEATQL

Variants of: B1
Assay: raw area under fraction-flipped curve 0-4 h after induction (AUC4h, not background-subtracted), DNA-recorder readout of cleavage of the substrate (dimensionless); higher = more cleavage of the substrate by the protease variant
Settings: temperature: 34 °C; time window: 0-4 h after rhamnose induction
Procedure: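 In vivo DNA recorder in E. coli TOP10(DE3) ΔrhaA at 34 °C. Each TEVp single-site mutant (parent TEVp 0) is paired with a single-site variant of the 7-mer TEVs (canonical ENLYFQ|S). The substrate sits between flexible linkers in a Bxb1-sfGFP-TEVs-SsrA fusion, so cleavage stabilises Bxb1 and speeds flipping of a recombination array, read by NGS. The value is the raw area under the fraction-flipped curve over 0-4 h after rhamnose induction (AUC4h), with ≥20 reads per time point. It is not background-subtracted; inactive controls average about 0.047.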
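Note: Bxb1 expression induced with 0.2% (w/v) L-rhamnose at OD600 near 0.5, cultures sampled hourly, flipped fraction per protease–substrate barcode pair counted by paired-end Illumina sequencing.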

MGESLFKGPRDYNPISSSICHLTNESDGHTTSLYGIGFGPFIITNKHLFRRNNGTLVVQSLHGVFKVKDTTTLQQHLVDGRDMIIIRMPKDFPPFPQKLKFREPQREERICLVTTNFQTKSMSSMISDTSCTFPSGDGIFWKHWIQTKDGQCGSPLVSTRDGFIVGIHSASNFTNTNNYFTSVPKNFMELLTNQEAQQWVSGWRLNADSVLWGGHKVFMVKPEEPFQPVKEATQL [V126I]
area with substrate ENLYFCS: 0.0488 | area with substrate ENLYFDS: 0.0732 | area with substrate ENLYFFS: 0.0655 | area with substrate ENLYFGS: 0.0549 | area with substrate ENLYFHS: 0.0658 | area with substrate ENLYFIS: 0.0681 | area with substrate ENLYFKS: 0.0558 | area with substrate ENLYFMS: 0.0682 | area with substrate ENLYFRS: 0.0531 | area with substrate ENLYFYS: 0.0591

MGESLFKGPRDYNPISSSICHLTNESDGHTTSLYGIGFGPFIITNKHLFRRNNGTLVVQSLHGVFKVKDTTTLQQHLVDGRDMIIIRMPKDFPPFPQKQKFREPQREERICLVTTNFQTKSMSSMVSDTSCTFPSGDGIFWKHWIQTKDGQCGSPLVSTRDGFIVGIHSASNFTNTNNYFTSVPKNFMELLTNQEAQQWVSGWRLNADSVLWGGHKVFMVKPEEPFQPVKEATQL [L99Q]
area with substrate ENLYFCS: 0.0632 | area with substrate ENLYFDS: 0.0365 | area with substrate ENLYFHS: 0.0479 | area with substrate ENLYFIS: 0.0547 | area with substrate ENLYFKS: 0.0798 | area with substrate ENLYFMS: 0.0706 | area with substrate ENLYFNS: 0.0525 | area with substrate ENLYFPS: 0.0599 | area with substrate ENLYFRS: 0.0516 | area with substrate ENLYFWS: 0.0784

MGESLFKGPRDYNPISSSICHLTNESDGHTTSLYGIGFGPFIITNKHLFRRNNGTLVVQSLHGVFKVKDTTTLQQHLVDGRDMIIIRMLKDFPPFPQKLKFREPQREERICLVTTNFQTKSMSSMVSDTSCTFPSGDGIFWKHWIQTKDGQCGSPLVSTRDGFIVGIHSASNFTNTNNYFTSVPKNFMELLTNQEAQQWVSGWRLNADSVLWGGHKVFMVKPEEPFQPVKEATQL [P89L]
area with substrate ENLYFCS: 0.0279 | area with substrate ENLYFHS: 0.0508 | area with substrate ENLYFIS: 0.0769 | area with substrate ENLYFKS: 0.0537 | area with substrate ENLYFMS: 0.0331 | area with substrate ENLYFPS: 0.0487 | area with substrate ENLYFSS: 0.0853 | area with substrate ENLYFWS: 0.057

MGESLFKGPRDYNPISSSICHLTNESDGHTTSLYGIGFGPFIITNKHLFRRNNGTLVVQSLHGVFKVKDTTTLQQHLVDGRDMIIIRMPKDFPPFPQKLKFREPQREERICLSTTNFQTKSMSSMVSDTSCTFPSGDGIFWKHWIQTKDGQCGSPLVSTRDGFIVGIHSASNFTNTNNYFTSVPKNFMELLTNQEAQQWVSGWRLNADSVLWGGHKVFMVKPEEPFQPVKEATQL [V113S]
area with substrate ENLYFCS: 0.0542 | area with substrate ENLYFES: 0.0549 | area with substrate ENLYFFS: 0.0706 | area with substrate ENLYFGS: 0.0495 | area with substrate ENLYFHS: 0.03 | area with substrate ENLYFIS: 0.0397 | area with substrate ENLYFMS: 0.0534 | area with substrate ENLYFNS: 0.0561 | area with substrate ENLYFPS: 0.0429 | area with substrate ENLYFRS: 0.0523 | area with substrate ENLYFSS: 0.0399 | area with substrate ENLYFTS: 0.0477 | area with substrate ENLYFVS: 0.0613 | area with substrate ENLYFWS: 0.0366 | area with substrate ENLYFYS: 0.0415

MGESLFKGPRDYNPISSSICHLTNESDGHTTSLYGIGFGPFIITNKHLFRRNNGTLVVQSLHGVFKVKDTTTLQQHLVDGRDMIIIRMPKDFPPFPQKLKFREPQREERICLVTTNFQTKSMSSMVSDTSCTLPSGDGIFWKHWIQTKDGQCGSPLVSTRDGFIVGIHSASNFTNTNNYFTSVPKNFMELLTNQEAQQWVSGWRLNADSVLWGGHKVFMVKPEEPFQPVKEATQL [F133L]
area with substrate ENLYFCS: 0.0771 | area with substrate ENLYFDS: 0.067 | area with substrate ENLYFFS: 0.0692 | area with substrate ENLYFGS: 0.0535 | area with substrate ENLYFMS: 0.0641 | area with substrate ENLYFNS: 0.0513 | area with substrate ENLYFPS: 0.0618

MGESLFKGPRDYNPISSSICHLTNESDGHTTSLYGIGFGPFIITNKHLFRRNNGTLVVQSLHGVFKVKDTTTLQQHLVDGRDMIIIRMPKDFPPFPQKLKFREPQREERICLVTTNFQTKIMSSMVSDTSCTFPSGDGIFWKHWIQTKDGQCGSPLVSTRDGFIVGIHSASNFTNTNNYFTSVPKNFMELLTNQEAQQWVSGWRLNADSVLWGGHKVFMVKPEEPFQPVKEATQL [S121I]
area with substrate ENLYFCS: 0.0555 | area with substrate ENLYFDS: 0.0569 | area with substrate ENLYFES: 0.083 | area with substrate ENLYFFS: 0.0603 | area with substrate ENLYFHS: 0.0574 | area with substrate ENLYFIS: 0.0614 | area with substrate ENLYFKS: 0.0641 | area with substrate ENLYFMS: 0.0729 | area with substrate ENLYFNS: 0.0653 | area with substrate ENLYFPS: 0.0584 | area with substrate ENLYFRS: 0.0654 | area with substrate ENLYFSS: 0.0403 | area with substrate ENLYFTS: 0.0502 | area with substrate ENLYFVS: 0.0631 | area with substrate ENLYFWS: 0.0642 | area with substrate ENLYFYS: 0.0525

MGESLFKGPRDYNPISSSICHLTNESDGHTTSLYGIGFGPFIITNKHLFRRNNGTLVVQSLHGVFKVKDTTTLQQHLVDGRDMIIIRMPKDFPPFPQKLKFREPQREERICLVTTNFQTKSMSSMVSDTSCTFPSGDGIFWKHWIQFKDGQCGSPLVSTRDGFIVGIHSASNFTNTNNYFTSVPKNFMELLTNQEAQQWVSGWRLNADSVLWGGHKVFMVKPEEPFQPVKEATQL [T147F]
area with substrate ENLYFCS: 0.0591 | area with substrate ENLYFHS: 0.0545 | area with substrate ENLYFIS: 0.055 | area with substrate ENLYFKS: 0.0631 | area with substrate ENLYFTS: 0.061 | area with substrate ENLYFYS: 0.0567

MGESLFKGPRDYNPISSSICHLTNESDGHTTSLYGIGFGPFIITNKHLFRRNNGTLVVQSLHGVFKVKDTTTLQQHLVDGRDMIIIRMPHDFPPFPQKLKFREPQREERICLVTTNFQTKSMSSMVSDTSCTFPSGDGIFWKHWIQTKDGQCGSPLVSTRDGFIVGIHSASNFTNTNNYFTSVPKNFMELLTNQEAQQWVSGWRLNADSVLWGGHKVFMVKPEEPFQPVKEATQL [K90H]
area with substrate ENLYFCS: 0.0645 | area with substrate ENLYFFS: 0.0658 | area with substrate ENLYFHS: 0.0578 | area with substrate ENLYFIS: 0.0468 | area with substrate ENLYFKS: 0.0583 | area with substrate ENLYFLS: 0.0477 | area with substrate ENLYFMS: 0.0658 | area with substrate ENLYFNS: 0.0838 | area with substrate ENLYFPS: 0.051 | area with substrate ENLYFRS: 0.0637 | area with substrate ENLYFTS: 0.0562 | area with substrate ENLYFWS: 0.0648

MGESLFKGPRDYNPISSSICHLTNESDGHTTSLYGIGFGPFIITNKHLFRRNNGTLVVQSLHGVFKVKDTTTLQQHLVDGRDMIIIRMPKDFPPFPHKLKFREPQREERICLVTTNFQTKSMSSMVSDTSCTFPSGDGIFWKHWIQTKDGQCGSPLVSTRDGFIVGIHSASNFTNTNNYFTSVPKNFMELLTNQEAQQWVSGWRLNADSVLWGGHKVFMVKPEEPFQPVKEATQL [Q97H]
area with substrate ENLYFCS: 0.0583 | area with substrate ENLYFDS: 0.0697 | area with substrate ENLYFFS: 0.065 | area with substrate ENLYFHS: 0.058 | area with substrate ENLYFIS: 0.0496 | area with substrate ENLYFLS: 0.0523 | area with substrate ENLYFNS: 0.0537 | area with substrate ENLYFPS: 0.0626 | area with substrate ENLYFRS: 0.0599 | area with substrate ENLYFVS: 0.0237 | area with substrate ENLYFWS: 0.0615

MGESLFKGPRDYNPISSSICHLTNESDGHTTSLYGIGFGPFIITNKHLFRRNNGTLVVQSLHGVFKVKDTTTLQQHLVDGRDMIIIRMPKDFPPFPQKLKFREPQREERICLVTTNFQTKSMSSMVSDTSCTFQSGDGIFWKHWIQTKDGQCGSPLVSTRDGFIVGIHSASNFTNTNNYFTSVPKNFMELLTNQEAQQWVSGWRLNADSVLWGGHKVFMVKPEEPFQPVKEATQL [P134Q]
area with substrate ENLYFCS: 0.0544 | area with substrate ENLYFES: 0.0623 | area with substrate ENLYFFS: 0.061 | area with substrate ENLYFIS: 0.063 | area with substrate ENLYFKS: 0.0477 | area with substrate ENLYFLS: 0.0476 | area with substrate ENLYFMS: 0.065 | area with substrate ENLYFPS: 0.0623 | area with substrate ENLYFRS: 0.0551 | area with substrate ENLYFSS: 0.0638 | area with substrate ENLYFTS: 0.0729 | area with substrate ENLYFWS: 0.063

Source: the supplement of paper PMC12217912
